# The full ranking holds about 33,000 sequences; the median of “E-score (-0.5 to 0.5)” is about -0.036, and the highest 2% start at about 0.37. This is one part of the list.
# Target: T1, Yer064c (UniProt P40041)
# T1 sequence: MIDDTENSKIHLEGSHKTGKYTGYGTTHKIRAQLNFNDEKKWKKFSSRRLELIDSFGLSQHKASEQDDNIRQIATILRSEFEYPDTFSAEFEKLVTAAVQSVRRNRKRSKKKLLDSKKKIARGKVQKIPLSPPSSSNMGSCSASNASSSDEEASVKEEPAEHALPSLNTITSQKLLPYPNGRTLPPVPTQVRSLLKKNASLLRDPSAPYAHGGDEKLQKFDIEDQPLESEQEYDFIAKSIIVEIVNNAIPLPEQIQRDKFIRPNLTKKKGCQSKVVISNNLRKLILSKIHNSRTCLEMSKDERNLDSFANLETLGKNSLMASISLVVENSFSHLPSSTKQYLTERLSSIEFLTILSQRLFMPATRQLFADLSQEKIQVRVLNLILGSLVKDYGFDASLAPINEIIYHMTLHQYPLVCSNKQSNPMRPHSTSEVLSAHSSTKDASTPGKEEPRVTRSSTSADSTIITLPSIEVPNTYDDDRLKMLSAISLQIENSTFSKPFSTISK
# Assay: PBM E-score (8-mer binding enrichment) (E-score (-0.5 to 0.5)); higher = stronger / more preferred TF binding; most listed sequences are background and not binding sites
# Settings: protein concentration: 200 nM; construct: GST-full length
# Procedure, shortened: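 Yeast transcription factors carrying a GST tag, as full-length proteins or DNA-binding domains, were produced by PURExpress in vitro transcription/translation. About 100-200 nM protein was applied to universal all-10-mer Agilent arrays, double-stranded by primer extension on fresh or once-stripped slides. Bound protein was detected with fluorescent anti-GST, and scans were normalised with masliner. The Universal PBM Analysis Suite gave each ungapped eight-base word, pooled with its reverse complement, an E-score, a modified Wilcoxon-Mann-Whitney statistic.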
row,Sequence,PBM E-score
1,AGGACCTC,-0.293
2,GGTTGTCA,-0.0479
3,ACGGGGTA,-0.003
4,AGTTCCGA,0.0577
5,ACTTCGTC,0.0588
6,GCATTTGA,0.159
7,CCGACTTC,-0.0761
8,GTTTCCCA,-0.00934
9,GATGCGAC,0.00152
10,CACGAAGC,-0.0806
11,ACTTGCCT,-0.0551
12,AAAATTCC,-0.197
13,CGCGGCAC,-0.325
14,GAACAGCA,-0.175
15,ACAGTCGT,0.198
16,GTGGCGAA,-0.171
17,GAAACGTA,-0.0136
18,CCGAGGAC,-0.0294
19,GCTCAACA,-0.0159
20,AAGCGACT,0.369
21,ATGACAAC,-0.0635
22,TACGGTGA,0.194
23,AGCGGGCC,-0.167
24,CGCCCTCC,-0.364
25,CTCTGCCC,-0.138

row,Sequence,PBM E-score
1,AAGGACTA,0.375
2,GCCAGGGC,-0.19
3,CGTTCACA,0.0136
4,CTCAGCAG,0.103
5,AAGGTTGA,0.242
6,CCGAACAA,-0.119
7,CACCAGGA,0.00778
8,AGGGGGAA,-0.34
9,AATCTAGT,0.215
10,ACTTCTTC,0.0781
11,AACTACAG,-0.166
12,GAGCAAGC,-0.0798
13,TCAGAAAA,0.0134
14,AAGGTCAC,0.0502
15,CCTGCTGA,0.0146
16,CCCCTCTA,-0.246
17,CGTATTAC,-0.06
18,GAGTTTAA,0.148
19,GACCCTAA,-0.141
20,CGCTTGAC,0.0418
21,CTCTGAAC,0.0386
22,CGGATGAC,0.141
23,ATTCAGGG,0.0298
24,CGCATTGA,-0.102
25,GGTGAAGA,-0.0031

row,Sequence,PBM E-score
1,ACTAGCGG,-0.0722
2,ATCGGACG,-0.34
3,CAAGGAAA,-0.174
4,TAGAGTCA,0.469
5,GTTTTCCA,-0.0642
6,ATGCTCCC,-0.176
7,CGCGACTA,0.397
8,TATGTTAA,0.0376
9,GGCCCTGA,-0.0566
10,GACGAGAC,-0.0639
11,CGCTCTAA,-0.0444
12,AAAAGACT,0.348
13,AATGTCAT,-0.0407
14,ATACAGCA,-0.168
15,TACTTGGA,0.102
16,CAGCCGGG,-0.101
17,GTGACGGA,-0.0635
18,CGCAGGAC,-0.12
19,CATATATG,-0.0829
20,TAGGCTGA,0.162
21,TAGGGCCA,-0.307
22,AAAAGTTG,-0.0918
23,ACCGTCAG,-0.116
24,CAAACTCA,0.131
25,CGCCAATC,-0.0392

row,Sequence,PBM E-score
1,CCCACTCG,-0.137
2,ACCTTTCC,-0.182
3,ATTAGTTC,0.019
4,CGAGGGGC,-0.383
5,CTCCAGTC,0.0119
6,AGTGAGGG,-0.0706
7,CGGAAACG,-0.19
8,ACCTTTTG,-0.181
9,ACGGCATA,-0.0587
10,ATCCACTC,-0.0532
11,TCGAGCCA,-0.00283
12,AACAGTTG,-0.07
13,ACCCGCCT,-0.07
14,ATTAGCGC,0.0351
15,AAGGACTC,0.39
16,AAACGTAG,-0.143
17,AAGGAGAG,-0.0501
18,GCAATTAA,0.126
19,ATGTTCGG,-0.152
20,ACGTGATC,0.118
21,CAAACATA,-0.0526
22,CTATACTA,0.0579
23,AGACCAAA,0.0161
24,CTTCGTAC,-0.0836
25,GAATCCGA,0.173

row,Sequence,PBM E-score
1,GATGTGGA,0.0614
2,AGGTGAAC,-0.138
3,ACCTAACT,0.00736
4,CTACAAAC,-0.0868
5,ATCATTCC,0.258
6,GACCCCCA,-0.224
7,CCTCAACG,-0.208
8,AAGCACAA,0.0149
9,CAGCATTA,-0.073
10,CTAGCCAG,0.0467
11,AATCTCGC,0.191
12,AACTTTTG,0.0289
13,GGCTATAC,-0.0855
14,AAAGCTAA,-0.0277
15,GGACCTGA,0.085
16,ATGCAGGG,-0.177
17,AGGTCCGC,-0.383
18,CGATCGCA,-0.145
19,CGCTGGGC,-0.101
20,ACAAATAA,0.0193
21,CCACTCGC,-0.165
22,CAGTCGGG,0.0747
23,TACGCACA,-0.0753
24,AGTAATCA,0.415
25,ATCCGTTA,0.0301

row,Sequence,PBM E-score
1,AGGATGCA,-0.278
2,ACGTCCTA,-0.223
3,GAACGCAC,-0.259
4,CAAAGACA,0.0678
5,TATTCGGA,0.0216
6,TGGGCGAA,0.0204
7,CGACCGAC,-0.0858
8,GAACCGGA,-0.203
9,CCTGGTTA,0.138
10,ATATCCGG,-0.0101
11,ACAAATTG,-0.0454
12,TCTCAGCA,-0.0656
13,GTACGCGA,0.0303
14,GCTATCAC,-0.156
15,TGGCCACA,-0.0441
16,ACGCACTC,-0.0196
17,AAACTTGA,0.0954
18,AGTAGCAT,-0.0837
19,AAGACTCA,0.48
20,AGTTGCAA,0.0093
21,GCCCCCCA,-0.203
22,ATGCTGCA,-0.224
23,ACTTTTCT,0.0949
24,GCTACAGC,-0.105
25,CACACAAC,-0.0138

row,Sequence,PBM E-score
1,ACTGCCGA,-0.0796
2,AAACAGTT,-0.031
3,GATTGGCC,-0.0787
4,AATAATGG,-0.0327
5,TAACTAGA,0.0826
6,TGTAAGAA,0.0347
7,CAATCACG,0.296
8,ATAAACAG,0.0432
9,GGTAGATA,-0.191
10,CGGTTATC,-0.198
11,ACTGAATA,0.239
12,AACCCGCT,-0.234
13,CTTAGGTA,0.0257
14,TCCGGCAA,-0.0552
15,CGAGGTAA,0.0334
16,AGAGACCA,-0.0405
17,AACGACTA,0.393
18,ATGATACA,0.246
19,GGCGTAAC,-0.294
20,AAATACTT,0.117
21,ACATACGC,-0.0985
22,CTATGGGA,-0.0985

# — the supplement of paper PMC3334620
